Test results taken from PubChem BioAssay AID757 (NMMLSC, 2007).
Screen size: about 190,000 compounds; about 520 (0.27%) were called active. Inconclusive means that the source gave no clear call. Such entries were picked first, then a sample of the others.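 How the source made its calls: active means GTP binding activity at least 20 points away from the 100% control level, either lower or higher; inconclusive means compound flagged as likely green fluorescent, judged across all proteins; inactive means the rest.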

Each molecule was assayed against Ras-related C3 botulinum toxin substrate 1 (Homo sapiens) (UniProt P63000) (assay: wildtype Rac1 GTP binding modulators, primary screen, biochemical, GST-Rac1 beads, flow cytometry, multiplex (AID 757)). Conditions: fluorescent GTP binding, at 10 µM, actives lie on both sides, 0 = cold GTP competed, 100 = untreated.

SMILES | GTP binding activity (% of control)
Nc1c(S(=O)(=O)c2ccccc2)c2nc3ccccc3nc2n1C1CC1 | active: 78%
CCCCNC(=O)C(Sc1ccccc1)c1ccccc1 (stereo not given) | inactive: 105%
Cc1cc(C#N)c(C)n1-c1cc(C(F)(F)F)ccc1N1CCOCC1 | inconclusive: 103%
COc1ccc(CCn2c(N)c(C#N)c3nc4ccccc4nc32)cc1OC | inconclusive: 86%
NC1=NC(=O)C2(COC(c3cccnc3)OC2)S1 (stereo not given) | inconclusive: 93%
CCOCCCNC(=O)CN1C(=O)/C(=C/c2ccccc2)Sc2ccccc21 | inactive: 97%
COc1ccc(S(=O)(=O)N2CCC(C(=O)NCC3CCCO3)CC2)cc1 (stereo not given) | inconclusive: 104%
COc1ccc(C2C(C(C)=O)=C(O)C(=O)N2c2nccs2)cc1 (stereo not given) | inconclusive: 92%
O=C(O)C1CSC(c2coc3ccccc3c2=O)N1 (stereo not given) | inactive: 97%
CCOC(=O)CSc1nc(NCc2ccco2)c2ccccc2n1 | inconclusive: 108%
COc1ccc(S(=O)(=O)N(Cc2cc3ccc(OC)cc3[nH]c2=O)CC2COCCO2)cc1 (stereo not given) | inconclusive: 107%
Cc1cccc(NC2=NCC(=O)N2Cc2ccccc2)c1 | inconclusive: 105%
CS(=O)(=O)N1CCC(C(=O)Nc2ccc(Cl)c(Cl)c2)CC1 | inconclusive: 94%
Cc1nc(C)c(-c2csc(Nc3cccnc3)n2)s1 | inconclusive: 91%
O=Cc1cc(N=Nc2cccc(C(=O)O)c2)ccc1O | inconclusive: 88%
O=C(COC(=O)CNC(=O)c1ccccc1)Nc1ccc(F)c([N+](=O)[O-])c1 | inactive: 98%
CNC(=S)N/N=C/c1cn(Cc2c(F)cccc2Cl)c2ccccc12 | inconclusive: 101%
COc1cc2c(cc1OC)CN(CC(=O)Nc1ccc(Cl)c(S(=O)(=O)N(C)C)c1)CC2 | inactive: 96%
CCOC(=O)c1ccc(NC(=O)N2CCN(c3cccc(OC)c3)CC2)cc1 | inactive: 97%
Cc1nn2c(COc3ccc(NC(=O)c4ccccc4Cl)cc3)nnc2c2ccccc12 | inactive: 93%
COc1cc([N+](=O)[O-])cc(/C=N/N(CCC#N)C(C)=O)c1O | inactive: 97%
CS(=O)(=O)N(Cc1ccc(Cl)cc1)c1ccc(C(=O)NCCC2=CCCCC2)cc1 | inconclusive: 99%
CC(Oc1ccccc1)C(=O)Nc1cccc(-c2nc3ccccc3[nH]2)c1 (stereo not given) | inconclusive: 93%
O=C(Nc1ccc(N2C(=O)CCC2=O)cc1Cl)c1cccs1 | inactive: 99%

SMILES | GTP binding activity (% of control)
COc1ccc(Cc2c[nH]c(=O)[nH]c2=O)cc1 | inconclusive: 96%
Cc1ccc(-c2nnc(-c3ccccc3S(=O)(=O)Cc3ccc(Cl)cc3)o2)cc1 | inconclusive: 110%
CC(C)CCNC(=O)COC(=O)c1cc(Br)c(Br)s1 | inconclusive: 99%
COc1ccc(/C=N\NC(=O)c2sc(N)nc2C)cc1OC | inconclusive: 91%
CN(CCc1cnn(C)c1)Cc1cn[nH]c1-c1ccc(-c2ccccc2)cc1 | inactive: 104%
Cc1sc(NC(=O)c2ccco2)c(C(c2ccncc2)N2CCOCC2)c1C (stereo not given) | inconclusive: 104%
NS(=O)(=O)c1cccc(NC(=O)Cn2cnc3ccccc3c2=O)c1 | inactive: 105%
Cn1cc(C(=O)N2CCc3ccccc3C2)c(=O)c2cc(S(=O)(=O)N3CCCCC3)ccc21 | active: 121% [activator]
OC(CNCCC1C=Nc2ccccc21)Cn1c2ccc(Cl)cc2c2cc(Cl)ccc21 (stereo not given) | active: 144% [activator]
CCc1ccc(OS(=O)(=O)c2cn(C)c(=O)n(C)c2=O)cc1 | inactive: 96%
Cc1cc(C)cc(Nc2nc3c([nH]2)c(=O)n(C)c(=O)n3C)c1 | inconclusive: 99%
O=C(O)CCC(=O)Nc1ccc(Br)cn1 | inactive: 98%
CC1CCCN(C(=S)NC2CCCC2)C1 (stereo not given) | inactive: 94%
C/C(N)=C(/C#N)C(=O)CSc1nnnn1-c1ccc(C)cc1 | inconclusive: 107%
COc1cccc(CNCC(O)(c2ccc(Cl)cc2)c2ccc(Cl)cc2)c1 | inconclusive: 105%
COc1ccc(OCCSc2nc3nc(C)cc(C)n3n2)cc1 | inconclusive: 81%
COc1ccc(Cn2c(-c3ccc(C)cc3)nc3c(c(=O)c4ccccc4n3C)c2=O)cc1 | inactive: 108%
O=C(/C=C/c1ccccc1)Nc1ccc(C(=O)N2CCCCC2)cc1 | inactive: 98%
COc1ccc(CC(=O)NCc2cccs2)cc1 | inconclusive: 105%
O=C(O)c1cc(-c2ccc(/C=C3\NC(=O)N(c4ccc(Cl)cc4)C3=O)o2)ccc1Cl | active: 74%
COc1ccccc1-c1cc(C(F)(F)F)nc(N2CCN(c3ccccc3)CC2)n1 | inconclusive: 107%
COc1ccc(C2(CNC(=O)Cc3ccc(OC)c(OC)c3)CCOCC2)cc1 | inconclusive: 93%
O=C(c1nnsc1S(=O)(=O)c1ccc(Cl)cc1)N1CCOCC1 | inactive: 106%
Cc1cccc2sc(NC(=O)CSCc3ccccc3)nc12 | inconclusive: 89%

SMILES | GTP binding activity (% of control)
CCOc1ccc(C(C(=O)NC2CCCC2)N(CCCO)C(=O)c2ccc(-c3ccccc3)[nH]2)cc1 (stereo not given) | inactive: 90%
COc1coc(C(O)C[N+](=O)[O-])cc1=O (stereo not given) | inactive: 105%
CCOC(=O)C1(Cc2cccc(F)c2)CCN(Cc2nc(CC)[nH]c2C)CC1 | inconclusive: 120%
CN(C)c1ccc(/C=C/C(=O)c2cccc(Br)c2)cc1 | inconclusive: 123%
Cc1ccc(N2CC(O)=C(c3ccccc3)C2=N)cc1 | inconclusive: 97%
COc1cccc(Nc2c(F)c(F)c(F)c(F)c2C(=O)O)c1 | active: 131% [activator]
CCCCCCn1c(=O)[nH]c2nc3cc(N)c(C)cc3nc2c1=O | inconclusive: 87%
O=C(NCCCN1CCCCC1)c1ccc2c(c1)NC(=O)C(N1CCOCC1)S2 (stereo not given) | inconclusive: 93%
CCOC(=O)N1CCN(C(=S)Nc2cccc(C)c2C)CC1 | inconclusive: 105%
CCOCc1c(C(=O)NC2CCCCCC2)oc2ccccc12 | inconclusive: 91%
CCCOC1OC(=O)c2c1ccc(OC)c2OC (stereo not given) | inactive: 102%
CCOC(=O)N1CCN(/C=C(\C#N)c2nc3ccccc3s2)CC1 | active: 124% [activator]
CN(C(=O)Nc1ccc(Cl)cc1Cl)C1CCCC1 | inactive: 101%
O=C(/C=C/c1ccccc1)N1CCC(Cc2ccccc2)CC1 | inconclusive: 92%
Fc1cccc(Nc2ncnc3[nH]ncc23)c1 | active: 79%
CCC(=O)Nc1c(C#N)c2nc3ccccc3nc2n1C1CCCCC1 | inconclusive: 108%
NS(=O)(=O)c1ccc(NC(=O)C2C3C=CC(C3)C2C(=O)O)cc1 (stereo not given) | inconclusive: 98%
CC(NC(=O)OCc1ccccc1)C(=O)Oc1cc2oc(=O)cc(-c3ccccc3)c2cc1Cl (stereo not given) | inconclusive: 94%
O=C(CCN1CCc2ccccc2C1)Nc1cccc(F)c1 | inconclusive: 103%
CC1=CC(=O)C=C(C)C1=NOS(=O)(=O)c1ccccc1 | inactive: 89%
O=[N+]([O-])c1cccc(Nc2c3ccccc3nc3ccccc23)c1 | inactive: 93%
Cc1ccccc1NC(=S)N(CCCN1CCOCC1)Cc1ccccn1 | inconclusive: 104%
FC(F)(F)c1ccc(C2NCCc3sccc32)cc1 (stereo not given) | inactive: 97%
Cn1c(C(=O)N2CCc3ccccc3C2)cc2c(=O)n3ccccc3nc21 | inconclusive: 112%

SMILES | GTP binding activity (% of control)
CCn1c(SCC(=O)N/N=C/c2c[nH]c3ccccc23)nnc1-c1ccc(Cl)cc1 | inactive: 98%
O=C1OC(OC2CCCCC2)(c2ccccc2)c2ccccc21 (stereo not given) | inconclusive: 110%
CSCCC(NC(=O)C1CCC(C)CC1)C(=O)N1CCN(c2ccccn2)CC1 (stereo not given) | inconclusive: 104%
Cc1noc(C)c1C(c1ccccc1)S(=O)(=O)c1ccccc1 (stereo not given) | inconclusive: 102%
COc1cc(NS(=O)(=O)c2ccc(Nc3nc(-c4ccccc4)cs3)cc2)nc(OC)n1 | active: 73%
CC1CCN(CCCNC(=O)COc2cc(=O)n(C)c3ccccc23)CC1 | inconclusive: 105%
COc1ccccc1-n1cc(CN2CCN(C3CCCC3)C(CCO)C2)cn1 (stereo not given) | inactive: 105%
Cc1cc(NCc2ccccn2)n2c(nc3ccccc32)c1C#N | active: 66%
COc1ccc(N2CCN(C(=O)c3cccnc3SCc3cccc(Br)c3)CC2)cc1 | inactive: 103%
COc1cc(/C=N/Nc2ccccc2C(F)(F)F)ccc1O | inactive: 94%
CCOC(=O)c1ccc(NC(=O)c2cc3ccccc3o2)cc1 | inconclusive: 100%
COCCNC(=S)N/N=C1\CC(C)CC(C)(C)C1 (stereo not given) | inactive: 93%
COc1ccc(N(C(=O)c2ccc(Br)o2)C2C=CS(=O)(=O)C2)cc1 (stereo not given) | inconclusive: 99%
COc1cccc(N=Nc2c(N)[nH]n3c(=O)c4c(nc23)CCCC4)c1 | inconclusive: 62%
Cc1ccc(N=Nc2c(N)[nH]n3c(=O)cc(-c4ccccc4)nc23)cc1 | active: 79%
Brc1[nH]nc2ccccc12 | inconclusive: 92%
Cn1nnnc1SCC(=O)Nc1ccc2c(c1)OCO2 | inactive: 99%
Cc1cccc(NCc2ccc(O)c3ncccc23)c1C | inconclusive: 82%
CC(Sc1nc2ccccc2s1)C(=O)c1c(N)n(C)c(=O)n(C)c1=O (stereo not given) | inconclusive: 95%
OCCC1CN(Cc2ccccc2O)CCN1CCc1ccccc1 (stereo not given) | active: 12%
Cc1cccc2cc(CN(Cc3ccc(F)cc3)C(=O)N3CCOCC3)c3nnnn3c12 | inconclusive: 104%
COCCN(C(=S)Nc1ccc(OC)cc1)C1CCN(C(C)C)CC1 | inactive: 104%
Cc1cc(C(C)(C)C)cc(S(=O)(=O)Nc2cccc(C(=O)O)c2)c1C | inconclusive: 97%
